Source: the supplement of paper PMC13016719

Assays:
Assay in all cases: Reference broth microdilution (once per isolate) and two commercial panels; inhibitor fixed at 4 µg/mL.
[1] = compound: Cn1c(N)c(NC(=O)NCCN)c[n+]1CC1=C(C(=O)[O-])N2C(=O)[C@@H](NC(=O)/C(=N\OC(C)(C)C(=O)O)c3nsc(N)n3)[C@H]2SC1 [ceftolozane] (with: tazobactam 4 µg/mL)
[2] = compound: CC(C)(O/N=C(\C(=O)N[C@@H]1C(=O)N2C(C(=O)[O-])=C(C[n+]3ccccc3)CS[C@H]12)c1csc(N)n1)C(=O)O [ceftazidime] (with: avibactam 4 µg/mL)
[3] = compound: C[C@@H](O)[C@H]1C(=O)N2C(C(=O)O)=C(SCCNC=N)C[C@H]12 [imipenem]; settings: reference broth microdilution

Test System	MIC ([1]; BD Phoenix panel) [µg/mL]	MIC ([1]; reference broth microdilution) [µg/mL]	MIC ([2]; BD Phoenix panel) [µg/mL]	MIC ([2]; reference broth microdilution) [µg/mL]	MIC [3] [µg/mL]	MIC ([1]; Sensititre panel) [µg/mL]	MIC ([2]; Sensititre panel) [µg/mL]
Pseudomonas aeruginosa isolate 161 (PDC allele: blaPDC-31)	≤ 1	≤ 1	8	8	> 8	–	–
Pseudomonas aeruginosa isolate 162 (PDC allele: blaPDC-5)	2	4	4	≤ 4	> 8	4	8
Pseudomonas aeruginosa isolate 164 (PDC allele: blaPDC-24)	4	8	4	8	8	–	–
Pseudomonas aeruginosa isolate 165 (PDC allele: blaPDC-15)	≤ 1	2	4	8	4	–	–
Pseudomonas aeruginosa isolate 166 (PDC allele: blaPDC-3)	2	4	8	≥ 32	2	–	–
Pseudomonas aeruginosa isolate 167 (PDC allele: blaPDC-8)	4	8	> 8	≥ 32	> 8	–	–
Pseudomonas aeruginosa isolate 168 (PDC allele: blaPDC-364)	≤ 1	2	8	16	1	–	–
Pseudomonas aeruginosa isolate 169 (PDC allele: blaPDC-6)	≤ 1	4	2	8	4	–	–
Pseudomonas aeruginosa isolate 170 (PDC allele: blaPDC-34)	≤ 1	2	1	≤ 4	8	–	–
Pseudomonas aeruginosa isolate 171 (PDC allele: blaPDC-24)	2	8	> 8	≥ 32	> 8	8	> 16
Pseudomonas aeruginosa isolate 172 (PDC allele: blaPDC-5)	≤ 1	≤ 1	> 8	16	2	–	–
Pseudomonas aeruginosa isolate 173 (PDC allele: blaPDC-1, ftsI change: ftsI_R504C)	8	≥ 16	> 8	≥ 32	> 8	–	–
Pseudomonas aeruginosa isolate 174 (PDC allele: blaPDC-8)	2	4	8	≤ 4	> 8	4	≤ 4
Pseudomonas aeruginosa isolate 175 (PDC allele: blaPDC-31)	2	8	4	16	8	–	–
Pseudomonas aeruginosa isolate 177 (PDC allele: blaPDC-35)	4	4	> 8	8	8	–	–
Pseudomonas aeruginosa isolate 178 (ESBL gene: blaPAC-1, PDC allele: blaPDC-36)	> 8	≥ 16	> 8	≥ 32	> 8	–	–
Pseudomonas aeruginosa isolate 179 (PDC allele: blaPDC-8)	≤ 1	≤ 1	2	≤ 4	≤ 1	–	–
Pseudomonas aeruginosa isolate 180 (PDC allele: blaPDC-31)	≤ 1	≤ 1	4	≤ 4	≤ 1	–	–
Pseudomonas aeruginosa isolate 181 (PDC allele: blaPDC-28)	≤ 1	2	2	≤ 4	4	2	≤ 4
Pseudomonas aeruginosa isolate 182 (ESBL gene: blaPAC-1, PDC allele: blaPDC-36)	> 8	≥ 16	> 8	≥ 32	> 8	–	–
Pseudomonas aeruginosa isolate 183 (PDC allele: blaPDC-266)	4	4	4	8	> 8	4	8
Pseudomonas aeruginosa isolate 184 (PDC allele: blaPDC-24)	2	8	4	16	> 8	8	16
Pseudomonas aeruginosa isolate 185 (ESBL gene: blaVEB-14, PDC allele: blaPDC-11, carbapenemase gene: blaVIM-5)	> 8	≥ 16	> 8	≥ 32	> 8	> 8	> 16
Pseudomonas aeruginosa isolate 186 (PDC allele: blaPDC-1)	4	4	8	≤ 4	> 8	–	–

MIC of multidrug-resistant clinical P. aeruginosa isolates by reference broth microdilution, Sensititre or Phoenix panel; µg/mL of the β-lactam, with the inhibitor fixed at 4 µg/mL where named; higher = less susceptible; each panel covers only a few steps. No active / inactive call per row; the paper applies CLSI M100 breakpoints. The methods often differ by one or more steps on the same isolate. Several isolates can come from one patient. PDC is the chromosomal AmpC β-lactamase of the species; the number names its allele. Isolates are numbered anew.
